In patent US20250002455A1, “NEW N-PHENYLPYRROLAMIDE INHIBITORS OF DNA GYRASE AND TOPOISOMERASE IV WITH ANTIBACTERIAL ACTIVITY” (priority 2020, published 2025):

What was measured:
[1] = system: THP-1 macrophages infected with M. tuberculosis H37Rv
M. tuberculosis H37Rv = assay: microbe, parasite or virus in culture; conditions: Mycobacterium tuberculosis; for viability at 1.25 µM / viability at 2.5 µM / viability at 5 µM / viability at 10 µM / viability at 20 µM: 168 h, read-out: Viability of Mycobacterium tuberculosis H37Rv (%)

Structure (SMILES) | % GFP-Mtb [1] [%] | % THP-1 macrophages [1] [%] | viability at 1.25 µM (M. tuberculosis H37Rv) [%] | viability at 2.5 µM (M. tuberculosis H37Rv) [%] | viability at 5 µM (M. tuberculosis H37Rv) [%] | viability at 10 µM (M. tuberculosis H37Rv) [%] | viability at 20 µM (M. tuberculosis H37Rv) [%] | MIC90 (M. tuberculosis H37Rv) [µM]
Cc1[nH]c(C(=O)Nc2ccc(C(=O)NCC(=O)O)cc2N2CC[C@@H](N)C2)c(Cl)c1Cl [Example 34, (R)-1-(5-((Carboxymethyl)carbamoyl)-2-(3,4-dichloro-5-methyl-1H-pyrrole-2-carboxamido)phenyl)pyrrolidin-3-aminium chloride] | 46.5 | 15.3 | 71.6 | 74.6 | 66 | 24.8 | 5.5 | 
Cc1[nH]c(C(=O)Nc2ccc(C(=O)NCc3n[nH]c(=O)o3)cc2N2CCNCC2)c(Cl)c1Cl.Cl [Example 40, 4-(2-(3,4-Dichloro-5-methyl-1H-pyrrole-2-carboxamido)-5-(((5-oxo-4,5-dihydro-1,3,4-oxadiazol-2-yl)methyl)carbamoyl)phenyl)piperazin-1-ium chloride] | 38.9 | 17.5 | 82.3 | 81.3 | 76.6 | 38.9 | 1 | 
NNC(=O)c1ccncc1 [isoniazid, reference compound] | 13.9 | 73.7 |  |  |  |  |  | 0.156 (≈ 0.0214 µg/mL)
CO[C@H]1/C=C/O[C@@]2(C)Oc3c(C)c(O)c4c(O)c(c(/C=N/N5CCN(C)CC5)c(O)c4c3C2=O)NC(=O)/C(C)=C\C=C\[C@H](C)[C@H](O)[C@@H](C)[C@@H](O)[C@@H](C)[C@H](OC(C)=O)[C@@H]1C [rifampicin, reference compound] | 8.3 | 100.0 |  |  |  |  |  | 0.0625 (≈ 0.0514 µg/mL)

≈ marks a conversion by molar mass, not a printed value.
